Test results taken from PubChem BioAssay AID493005 (National Center for Advancing Translational Sciences (NCATS), 2010).
Where “and” joins values, the source holds several entries; their conditions need not be identical. Equal entries are not always repeated. The whole screen tested about 340,000 compounds, of which fewer than 10 were called active. The shares of active, inactive and inconclusive entries below differ from those in the screen. Calls follow the shape of the dose curve; as a rule, active = well fitted inhibition curve with a large enough effect in the main read-out, with a control signal flat (not every such curve was filed as active); inconclusive = small, poorly fitted or top-dose-only effect, or effect the other way, or a change in a side signal; inactive = no such curve, though single readings can be large or run the other way. A potency beside an inconclusive call is a rough fit, not a confirmed value. A note “side channel” means that the fit belongs to a control or component signal, not to the main read-out.

These compounds were tested against Tumor susceptibility gene 101 protein (Homo sapiens) (UniProt Q99816) (assay: qHTS Assay for Iinhibitors of HIV-1 Budding by Blocking the Interaction of PTAP/TSG101). Conditions: Fluorescence polarization, FITC-PTAP peptide / Tsg101 binding; series mostly up to 115 µM; activity change, negative = inhibition: at the top concentration.
Chain of UniProt Q99816 (Q99816 whole entry, looked up, the tested form may be a part): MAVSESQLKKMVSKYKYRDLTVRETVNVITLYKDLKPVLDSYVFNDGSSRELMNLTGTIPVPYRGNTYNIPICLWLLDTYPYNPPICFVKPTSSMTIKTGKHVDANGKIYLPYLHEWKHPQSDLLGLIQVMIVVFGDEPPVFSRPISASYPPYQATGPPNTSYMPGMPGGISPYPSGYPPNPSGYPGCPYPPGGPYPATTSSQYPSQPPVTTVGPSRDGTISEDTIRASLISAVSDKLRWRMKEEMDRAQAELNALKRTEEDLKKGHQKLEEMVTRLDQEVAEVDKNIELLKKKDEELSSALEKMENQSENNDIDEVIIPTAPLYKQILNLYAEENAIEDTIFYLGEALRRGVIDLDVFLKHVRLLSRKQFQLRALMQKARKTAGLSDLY
Procedure, shortened: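 Fluorescence polarization binding of Tsg101 binding domain (10 uM final) to FITC-labeled PTAP peptide (50 nM final) in HEPES pH 7.5 buffer with NaCl, Tween 20, EDTA, TCEP. Compounds added before peptide; binding 20 min at RT.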
For activity change, negative = inhibition in this document: % of control where 0% means no effect.
Potency is read from the fitted curve at half-maximal effect; tags tell the direction and shape of the fitted curve or compound fluorescence and quenching.

| SMILES | Potency | activity change, negative = inhibition |
| --- | --- | --- |
| CCN(CC)C(=O)c1ccc2c(c1)C1C=CCC1C(C(=O)O)N2 (stereo not drawn) | inconclusive: 50.1 µM [fluorescent, side channel, partial curve, poor fit] | – |
| COc1ccc2c(c1)NP(=S)(Oc1ccccc1)N2 (stereo not drawn) | inconclusive: 56.2 µM [fluorescent, side channel, partial curve, poor fit] | – |
| O=C1NC(=O)N(c2ccc3c(c2)OCO3)C(=O)/C1=C/c1ccc(N2CCCCC2)o1 | inconclusive: 56.2 µM [fluorescent, side channel, partial curve, poor fit] | – |
| Cc1ccccc1N1C(=O)NC(=O)/C(=C\c2cc(Br)c(N3CCOCC3)o2)C1=O | inconclusive: 89.1 µM [fluorescent, single point] | – |
| Cc1cc2c(C(F)(F)F)cc(=O)oc2c2c1NCCC2 | inconclusive: 56.2 µM [fluorescent, side channel, partial curve] | – |
| Cc1cc(N2CCCC2)ccc1C=C(C#N)C#N | inconclusive: 50.1 µM [fluorescent, side channel, partial curve, poor fit] | – |
| Cn1c(O)c(C=Nc2ccc(N3CCOCC3)cc2)c(=O)n(C)c1=S | inconclusive: 56.2 µM [fluorescent, side channel, partial curve, poor fit] | – |
| N=C1c2ccccc2CN1NC(=O)c1ccc(Br)o1 | inconclusive: 56.2 µM [fluorescent, side channel, partial curve, poor fit] | – |
| CCn1c(O)c(C=Nc2ccc(N3CCOCC3)cc2)c(=O)n(CC)c1=S | inconclusive: 56.2 µM [fluorescent, side channel, partial curve, poor fit] | – |
| CCn1c(=N)n(Cc2ccccc2F)c2ccccc21 | – | inactive: -0.874% |
| CCN1/C(=C\C=C\C2=[N+](CC)c3ccccc3C2(C)C)C(C)(C)c2ccccc21 | inconclusive: 44.7 µM [fluorescent, side channel, partial curve, poor fit] | – |
| O=c1[nH]c(O)c(/C=C2\C=Nc3ccc(OCc4ccccc4)cc32)c(=O)[nH]1 | inconclusive: 50.1 µM [fluorescent, side channel, partial curve, poor fit] | – |
| CN1/C(=C\C=C2C(=O)NC(=S)NC2=O)C(C)(C)c2ccccc21 | inconclusive: 50.1 µM [fluorescent, side channel, partial curve, poor fit] | – |
| O=C1NC(=O)C(=Cc2cn(CCOc3ccc4c(c3)OCO4)c3ccccc23)C(=O)N1 | inconclusive: 79.4 µM [fluorescent, side channel, partial curve, poor fit] | – |
| C[C@H]1CC[C@@H]2[C@@H](C)[C@H]3[C@H](C[C@H]4[C@@H]5CC=C6C[C@@H](O[C@@H]7O[C@H](CO)[C@H](O)[C@H](O[C@@H]8O[C@H](CO)[C@@H](O)[C@H](O)[C@H]8O)[C@H]7O[C@@H]7O[C@@H](C)[C@H](O)[C@@H](O)[C@H]7O)CC[C@]6(C)[C@H]5CC[C@]34C)N2C1 | inconclusive: 56.2 µM [fluorescent, side channel, partial curve, poor fit] | – |
| CCN(CC)c1ccc(/C=C2\C(=O)NC(=S)N(c3ccc(OC)cc3OC)C2=O)o1 | inconclusive: 17.8 µM [fluorescent, side channel, full curve, poor fit] | – |
| CN(C)/C=c1\sc2c(C#N)cc(C(=O)c3ccc(Br)cc3)n2c1=O | inconclusive: 50.1 µM [fluorescent, side channel, partial curve, poor fit] | – |
| O=C1NC(=S)NC(=O)C1=Cc1ccc(OCc2ccccc2)cc1 | – | inactive: -2.9% |
| Cc1ccccc1N1C(=O)NC(=O)/C(=C\c2ccc3c(c2)CCCN3Cc2ccccc2)C1=O | inconclusive: 89.1 µM [fluorescent, side channel, single point] | – |
| Nc1ccc2c3c(cccc13)-c1ccccc1-2 | inconclusive: 50.1 µM [fluorescent, side channel, partial curve, poor fit] | – |
| C=CCn1c(O)c(C=Nc2ccc(N(CC)CC)cc2)c(=O)[nH]c1=O | inconclusive: 79.4 µM [fluorescent, side channel, partial curve, poor fit] | – |
| O=C1NC(=O)N(c2ccc3c(c2)OCO3)C(=O)/C1=C/c1ccc(N2CCCC2)o1 | inconclusive: 50.1 µM [fluorescent, partial curve, poor fit] | – |
| CC(C)C[C@H]1CN([C@@H](CC(C)C)CN2CCCC2CN2C(=S)NC[C@@H]2Cc2ccc(O)cc2)C(=S)N1CC1CCCCCC1 (stereo partly drawn) | inconclusive: 22.4 µM [quencher, side channel, partial curve, poor fit] | – |
| Cc1cc(C)c(Cn2c(C(=O)O)c(C=O)c3ccccc32)c(C)c1 | inconclusive: 56.2 µM [fluorescent, side channel, partial curve, poor fit] | – |

| SMILES | Potency | activity change, negative = inhibition |
| --- | --- | --- |
| C[C@]12CC[C@H](O)C[C@@H]1CC[C@@H]1[C@@H]2CC[C@]2(C)C(=O)CC[C@@H]12 | – | inactive: 2.1% |
| COC(=O)[C@@]1(C#N)[C@@H]2C=CC(C(C)=O)=CN2[C@@H](C(N)=O)[C@@H]1c1ccc(F)cc1 | inconclusive: 56.2 µM [fluorescent, side channel, partial curve, poor fit] | – |
| O=c1[nH]c(=S)n(-c2ccccc2F)c(O)c1C=Nc1ccc(N2CCOCC2)cc1 | inconclusive: 89.1 µM [fluorescent, side channel, single point] | – |
| CCOc1ccc(N2C(=O)NC(=O)/C(=C\c3ccc(N4CCCCC4)o3)C2=O)cc1 | inconclusive: 50.1 µM [fluorescent, side channel, partial curve, poor fit] | – |
| N#Cc1cc2c(nc1SCC(=O)Nc1cc(Cl)ccc1Cl)C1CCN2CC1 | – | inactive: -4.9% |
| CCN1C(=O)NC(=O)/C(=C\c2cn(CC(=O)N3CCCC3)c3ccccc23)C1=O | inconclusive: 89.1 µM [fluorescent, side channel, single point] | – |
| COc1ccc(C(=O)CN2CCOCC2)cc1F | – | inactive: 0.433% |
| Cc1ccc(O)c(C(=O)c2cc(C(=O)NCCC(C)C)c(=O)n(CCC(C)C)c2)c1 | inconclusive: 50.1 µM [quencher, side channel, partial curve, poor fit] | – |
| CCN(CC)c1ccc(N=Cc2c(O)n(-c3ccc(Cl)cc3)c(=O)[nH]c2=O)cc1 | inconclusive: 79.4 µM [fluorescent, side channel, partial curve] | – |
| CCOc1ccc(-n2c(O)c(C=Nc3ccc(N(CC)CC)cc3)c(=O)[nH]c2=O)cc1 | inconclusive: 79.4 µM [fluorescent, partial curve] | – |
| CN(C)c1ccc(/C=C/C=C/c2sc3ccccc3[n+]2C)cc1 | – | inactive: -0.955% |
| O=c1[nH]c(=O)n(C2CCCCC2)c(O)c1/C=C/C=Nc1ccccc1 | inconclusive: 56.2 µM [fluorescent, side channel, partial curve, poor fit] | – |
| C=CCn1c(O)c(/C=C/C=Nc2ccccc2)c(=O)[nH]c1=O | inconclusive: 79.4 µM [fluorescent, side channel, single point] | – |
| C=CCN1CCC2(C)c3cc(O)ccc3CC1C2C (stereo not drawn) | inconclusive: 56.2 µM [falling, partial curve, poor fit] | – |
| COCCNC(=O)Cn1cc(C=C2C(=O)NC(=O)NC2=O)c2ccccc21 | inconclusive: 44.7 µM [fluorescent, side channel, partial curve, poor fit] | – |
| CCN1C(=O)C(=Cc2cc(C)n(C3CC3)c2C)C(=O)N(CC)C1=S | inconclusive: 35.5 µM [fluorescent, side channel, partial curve, poor fit] | – |
| O=c1[nH]c(=S)[nH]c(O)c1N=Nc1ccc(SC(F)F)cc1 | inconclusive: 79.4 µM [fluorescent, side channel, partial curve, poor fit] | – |
| Cc1ccc(C)c(Cn2c(C(=O)O)c(C=O)c3ccccc32)c1 | inconclusive: 56.2 µM [fluorescent, side channel, partial curve, poor fit] | – |
| N#Cc1c(/N=C/c2ccc(O)cc2O)sc2c1C1CCN2CC1 | inconclusive: 56.2 µM [fluorescent, side channel, partial curve, poor fit] | – |
| Cc1cccc(-n2c(/C=C/c3ccc([N+](=O)[O-])o3)nc3ccccc3c2=O)c1 | inconclusive: 50.1 µM [fluorescent, side channel, partial curve, poor fit] | – |
| CC(=O)OC1CC[C@]2(C#N)[C@H]3CC[C@]4(C)[C@H](C5C=CC(=O)O5)CCC4(O)C3CCC2(O)C1 (stereo partly drawn) | – | inactive: -4.68% |
| CCN(CC)c1ccc(N=Cc2c(O)n(Cc3ccccc3)c(=O)[nH]c2=O)cc1 | inconclusive: 56.2 µM [fluorescent, side channel, partial curve, poor fit] and inconclusive: 79.4 µM [fluorescent, side channel, partial curve, poor fit] | – |
| COc1ccc(/C=C/C(=O)c2c(O)n(CCC3=CCCCC3)c(=O)[nH]c2=O)cc1OC | inconclusive: 56.2 µM [fluorescent, side channel, partial curve, poor fit] | – |
| CN1Cc2c(c(C#N)c(N)n(C)c2=S)CC1(C)C | inconclusive: 56.2 µM [fluorescent, partial curve, poor fit] | – |
